Experimental data reported in PubChem BioAssay AID686978 (National Center for Advancing Translational Sciences (NCATS), 2013).
The whole screen tested about 420,000 compounds, of which about 64,000 (15%) were called active. Inconclusive results, whose numbers are uncertain, are shown with a selection of clear calls. The call rests on the fitted dose curve; in most records, active means well fitted inhibition curve with a large enough effect; inconclusive means small, poorly fitted or top-dose-only effect; inactive means flat fitted curve, though single readings scatter. No potency is given beside an inconclusive call; the fits are too rough.

experiment: qHTS for Inhibitors of human tyrosyl-DNA phosphodiesterase 1 (TDP1): qHTS in cells in absence of CPT; details: DT40 Tdp1-/- hTDP1 cells, no CPT, ATP luminescence, 48 h; activity change, negative = growth inhibition: at 46.2 µM (top of the series) unless noted; further: nearly all actives have a fitted effect of over 55% in size
Summary of the method: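 Cells were dispensed at 400 per well, compounds added by pin tool, plates incubated ≥48 hr at 37 °C, then CellTiter-Glo added for 30 min at room temperature before luminescence reading. Line: DT40 Tdp1-/- complemented with hTDP1; camptothecin omitted.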
On the % scale 0 is the no-effect control and ±100 the full control effect; potency means the concentration at half of the fitted maximal effect; tags describe the fitted curve by direction and shape.

Structure (SMILES)	Potency	activity change, negative = growth inhibition
CC1CCc2c(sc(NC(=O)CCc3nc4ccccc4c(=O)[nH]3)c2C#N)C1 (configuration not stated)	active: 18.4 µM	–
CCCOc1ccc([C@@H]2C3CN(C(=O)OCC)CC=C3C(C#N)=C(N)C2(C#N)C#N)cc1OC (some centres not stated)	–	inconclusive: -30.1% [inhibitor]
COC(=O)c1c(C)nc2c(c(SC)nn2-c2ccccc2)c1N	inconclusive [inhibitor, single point]	–
CC(=O)N1CCC(C(=O)Nc2ccc3c(c2)CCC3)CC1	–	inactive: 10.8%
Cc1cc(S(=O)(=O)N2CCCOC2CNC(=O)C(=O)NCCCN2CCOCC2)ccc1F (configuration not stated)	–	inactive: 3.35%
CC1=C(C(=O)OC(C)C)C(c2ccco2)NC(=O)N1 (configuration not stated)	–	inactive: -12.8%
O=C(c1ccccc1)C(c1ccccc1)[n+]1csc2ccccc21 (configuration not stated)	active: 11.2 µM	–
Cc1ccccc1CN1CCCN(CC(=O)Nc2ccc(F)cc2)S1(=O)=O	inconclusive [inhibitor, partial curve]	–
Cc1cccc(NC(=O)c2cn(-c3ccccc3)nc2-c2ccccc2)c1C	active: 20.6 µM	–
Cc1ccccc1C(=O)Nc1ccc2c(c1)nc(CCNC(=O)c1ccco1)n2C	–	inactive: -8.26%
CC(=O)c1cccc(NC(=O)C2Cc3c(-c4cccc(C(N)=O)c4)ccnc3O2)c1 (configuration not stated)	active: 16.4 µM	–
O=C(NCCC1=CCCCC1)C(=O)NCC(c1ccco1)N1CCN(c2ccccc2F)CC1 (configuration not stated)	inconclusive [inhibitor, single point]	–
O=c1oc(-c2ccccc2Br)nc2ccccc12	inconclusive [inhibitor, single point]	–
CCOC(=O)C1CCN(Cc2cn3c(-c4ccc(OC)cc4)nnc3s2)CC1	inconclusive [inhibitor, partial curve]	–
COc1ccc(N(CC(=O)Nc2ccc(C)cc2)S(=O)(=O)c2c(C)noc2C)cc1	inconclusive [inhibitor, single point]	–
CC(=O)Oc1c(S(=O)(=O)c2ccccc2)c(C)nn1C(C)(C)C	–	inactive: -7.87%
CN(C)c1ccc(C(=O)NCC(c2cccs2)N2CCOCC2)cc1[N+](=O)[O-] (configuration not stated)	–	inactive: -28.6%
CCOC(=O)C1(CCOc2ccccc2)CCN(Cc2ccc3c(c2)OCCO3)CC1	inconclusive [inhibitor, single point]	–
O=S(=O)(Nc1ccc2c(c1)nc1n2CCN(Cc2ccccc2)C1)c1ccccc1	active: 23.1 µM	–
CCN1C(=O)[C@H]2[C@H]3CN=C(SCc4ccc(C(=O)OC)cc4)N3[C@@](CC)(C(=O)OC)[C@H]2C1=O	inconclusive [inhibitor, single point]	–
O=C1c2ccccc2C(=O)C1c1ccccc1F	–	inactive: -1.5%
Cc1ccc(OCCCCn2c(-c3ccc(Cl)cc3)nc3ccccc3c2=O)cc1	–	inactive: -9.71%
CCCCSc1[nH]c(=O)c(C(=O)OCC)cc1C#N	–	inactive: -13.7%
S=c1nc2ccccc2c2nc(-c3ccccc3Br)[nH]n12	active: 1.03 µM	–

Structure (SMILES)	Potency	activity change, negative = growth inhibition
CC(C)(C)OC(=O)N1CCc2onc(-c3ccc(-n4cc(C5=CCCCC5)nn4)cc3)c2C1=O	inconclusive [inhibitor, partial curve]	–
Cn1c(SCc2cccc(Cl)c2)nc(C(F)(F)F)cc1=O	inconclusive [inhibitor, partial curve, poor fit]	–
CC(C)(C)NC(=O)c1cccc(NC(=O)c2ccc(NC(=O)c3ccco3)cc2)c1	inconclusive [inhibitor, partial curve, poor fit]	–
CCOC(=O)c1c(C)oc2nc(C)nc(NCCc3ccc(Cl)cc3)c12	active: 13 µM	–
c1cc2c(cc1C1=Nn3c(nnc3C3CCCCC3)SC1)OCO2	active: 13 µM	–
COc1ccccc1-c1ccc2c(c1)C(C)(Cc1ccc(F)c(Cl)c1)C(=O)N2 (configuration not stated)	inconclusive [inhibitor, partial curve, poor fit]	–
COC(=O)c1cc(CNC(=O)CCCSc2ccccc2)ccc1OC	–	inconclusive: -36.4% [inhibitor]
CC(=O)NNc1cc(N2CCOCC2)nc(N2CCOCC2)n1	–	inconclusive: -30.5% [inhibitor]
COc1ccc(NC(=O)NC(C(F)(F)F)C(F)(F)F)cc1	inconclusive [inhibitor, partial curve]	–
Cc1ccccc1OCC(=O)NCC(=O)OCc1cccc2ccccc12	–	inactive: -0.108%
O=C(NCCC1=CCCCC1)C1CCCN(S(=O)(=O)c2cccc3cccnc23)C1 (configuration not stated)	inconclusive [inhibitor, single point]	–
O=C(CN1CCc2cc3c(cc2C1)OCCCO3)Nc1c(F)cccc1F	inconclusive [inhibitor, single point]	–
CCOC(=O)c1c(-c2ccc(C)cc2)csc1NC(=O)CCN1CCOCC1	active: 23.1 µM	–
CC1(C)CC(=O)C2=C(C1)N1C(=C(C#N)C2c2ccc(Cl)cc2)N=C(N)c2ccccc21 (configuration not stated)	active: 20.6 µM	–
Cc1cc(-c2csc(N)n2)c(C)n1CCC(C)C	inconclusive [inhibitor, single point]	–
COc1cccc(-c2cnc3c(NC=O)cc(-c4ccc(N5CCN(C)CC5)cc4)cn23)c1	inconclusive [inhibitor, single point]	–
COc1ccc(C(=O)N2CCC(C)(C(=O)NS(=O)(=O)C3CC3)C2)cc1 (configuration not stated)	–	inactive: -1.01%
CCCCN(C)CCCNC(=O)c1cn(C)c2ccc(S(=O)(=O)N(C)C3CCCCC3)cc2c1=O	inconclusive [inhibitor, single point]	–
CNCc1ccccc1OCC(=O)Nc1ccccc1	–	inactive: -1.74%
C[C@H](CO)N1C[C@H](C)[C@@H](CN(C)C(=O)Nc2ccccc2)Oc2c(NC(=O)Nc3ccc4c(c3)OCO4)cccc2C1=O	inconclusive [inhibitor, single point]	–
Cc1nc2c(-c3ccccc3)c(C)nn2c(SCC(N)=O)c1Cc1ccccc1	inconclusive [inhibitor, single point]	–
COc1ccc(C)cc1Nc1nc(-c2ccccc2O)nc2ccccc12	–	inactive: -8.27%
CC(=O)N1CCC2(CC1)CC(=O)c1cc(OCC(=O)NCc3ccco3)ccc1O2	–	inactive: -12.5%
